Experimental data: patent US20210269542A1 (published 2021)

How the values were obtained:
[1] = biological target: T1, human GITR expressed on cells (UniProt Q9Y5U5 26-241); experiment: FACS, inhibition of ABP1-Dylight650 staining on CD4+ T cells; Donor 1
T1 chain: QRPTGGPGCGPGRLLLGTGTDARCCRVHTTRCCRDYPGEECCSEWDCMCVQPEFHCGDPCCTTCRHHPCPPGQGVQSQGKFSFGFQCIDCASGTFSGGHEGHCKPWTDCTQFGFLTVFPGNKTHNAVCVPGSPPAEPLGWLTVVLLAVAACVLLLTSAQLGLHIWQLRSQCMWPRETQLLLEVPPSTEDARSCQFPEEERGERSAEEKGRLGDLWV

[2] = biological target: T1, human GITR expressed on cells; experiment: FACS, inhibition of ABP1-Dylight650 staining on CD4+ T cells; Donor 2
[3] = biological target: T1, human GITR expressed on cells; experiment: FACS, inhibition of ABP1-Dylight650 staining on CD8+ T cells; Donor 2
[4] = biological target: T1, human GITR expressed on cells; experiment: FACS, inhibition of ABP1-Dylight650 staining on CD8+ T cells; Donor 1

EC50 [1]: 0.0512 nM | EC50 [2]: 0.0355 nM | EC50 [3]: 0.0136 nM | EC50 [4]: 0.0528 nM
B1: ABP1 (antibody)
heavy: QVQLQESGPGLVKPSETLSLTCAVSGYSISSGLGWGWIRQPPGKGLEWIGGIYESGSTYYNPSLKSRVTISVDTSKNQFSLKLSSVTAADTAVYYCAHERVRGYGDYGGHHAFDIWGQGTMVTVSSASTKGPSVFPLAPSSKSTSGGTAALGCLVKDYFPEPVTVSWNSGALTSGVHTFPAVLQSSGLYSLSSVVTVPSSSLGTQTYICNVNHKPSNTKVDKRVEPKSCGGGGSQVQLQESGPGLVKPSETLSLTCAVSGYSISSGLGWGWIRQPPGKGLEWIGGIYESGSTYYNPSLKSRVTISVDTSKNQFSLKLSSVTAADTAVYYCAHERVRGYGDYGGHHAFDIWGQGTMVTVSSASTKGPSVFPLAPCSRSTSESTAALGCLVKDYFPEPVTVSWNSGALTSGVHTFPAVLQSSGLYSLSSVVTVPSSSLGTKTYTCNVDHKPSNTKVDKRV[human IgG4 Fc with S228P (EU numbers) left out]
light: [about 100 residues left out][about 120 residues left out]
